Data published in article PMC6673701, “Structure of Myosin VI/Tom1 complex reveals a cargo recognition mode of Myosin VI for tethering” (Nature Communications, 2019).
Where two headings read alike, the source gives them in different places. Results are given in words; binding and its absence hold for the method and conditions named. For part of these data: In cells and extracts the contact can be indirect. Some results given as binding are weak or reduced against the parent protein; the word gives no strength.

The chains behind the UniProt entries cited, without tags or fusion partners. Where a name states a change or a piece, a line headed by the entry shows the natural chain unless it says otherwise. A line that says so, or that is headed by a name, gives the form on record, which may keep a tag or linker. Residues count along the entry.
UniProt Q9UM54: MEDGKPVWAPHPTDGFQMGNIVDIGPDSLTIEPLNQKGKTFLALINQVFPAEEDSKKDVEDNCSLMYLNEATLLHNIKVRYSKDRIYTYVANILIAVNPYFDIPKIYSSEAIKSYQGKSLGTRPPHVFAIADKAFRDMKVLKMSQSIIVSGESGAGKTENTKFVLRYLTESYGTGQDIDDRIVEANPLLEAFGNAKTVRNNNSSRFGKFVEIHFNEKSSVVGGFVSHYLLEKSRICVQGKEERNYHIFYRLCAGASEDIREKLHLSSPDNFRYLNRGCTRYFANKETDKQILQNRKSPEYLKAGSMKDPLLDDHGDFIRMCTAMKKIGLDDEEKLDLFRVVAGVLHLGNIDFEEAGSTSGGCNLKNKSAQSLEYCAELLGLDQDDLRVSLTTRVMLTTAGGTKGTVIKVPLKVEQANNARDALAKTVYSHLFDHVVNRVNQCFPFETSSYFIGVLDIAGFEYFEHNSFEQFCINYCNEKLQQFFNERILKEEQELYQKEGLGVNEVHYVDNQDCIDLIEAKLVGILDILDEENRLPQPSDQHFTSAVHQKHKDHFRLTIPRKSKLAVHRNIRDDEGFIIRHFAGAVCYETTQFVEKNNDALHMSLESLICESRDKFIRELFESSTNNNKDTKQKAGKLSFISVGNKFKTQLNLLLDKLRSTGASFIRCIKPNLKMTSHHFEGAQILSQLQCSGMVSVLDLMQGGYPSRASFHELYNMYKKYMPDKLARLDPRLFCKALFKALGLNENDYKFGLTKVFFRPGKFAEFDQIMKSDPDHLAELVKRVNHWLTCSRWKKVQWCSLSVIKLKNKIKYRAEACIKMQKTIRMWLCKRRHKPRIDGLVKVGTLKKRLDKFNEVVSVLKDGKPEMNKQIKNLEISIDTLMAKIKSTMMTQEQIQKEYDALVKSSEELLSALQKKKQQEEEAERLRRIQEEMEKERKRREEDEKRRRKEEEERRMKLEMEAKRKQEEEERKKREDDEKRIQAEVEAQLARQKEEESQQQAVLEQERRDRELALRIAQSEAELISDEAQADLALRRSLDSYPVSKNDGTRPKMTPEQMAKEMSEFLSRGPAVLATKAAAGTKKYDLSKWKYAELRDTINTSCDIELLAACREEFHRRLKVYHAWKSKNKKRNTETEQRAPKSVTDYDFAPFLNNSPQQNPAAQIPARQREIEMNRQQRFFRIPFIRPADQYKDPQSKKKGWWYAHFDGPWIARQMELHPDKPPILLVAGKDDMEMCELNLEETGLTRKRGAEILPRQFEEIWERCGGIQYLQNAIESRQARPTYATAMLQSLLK
Myosin VI(1060–1285), purified recombinant: residues 1069-1294 of Q9UM54
C-terminal cargo-binding domain (CBD) of Myosin VI (residues 1157–1285): residues 1166-1294 of Q9UM54
GFP-tagged Myosin VI(1060–1285) W1193A (Q9UM54-1, form named): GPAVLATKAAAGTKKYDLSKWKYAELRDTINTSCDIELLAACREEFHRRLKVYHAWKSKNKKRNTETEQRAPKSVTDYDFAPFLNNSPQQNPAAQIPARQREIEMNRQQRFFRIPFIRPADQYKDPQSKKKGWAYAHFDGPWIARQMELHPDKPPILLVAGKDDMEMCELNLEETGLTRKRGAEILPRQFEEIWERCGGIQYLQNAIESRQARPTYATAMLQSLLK
GFP-tagged Myosin VI(1060–1285) E1207R (Q9UM54-1, form named): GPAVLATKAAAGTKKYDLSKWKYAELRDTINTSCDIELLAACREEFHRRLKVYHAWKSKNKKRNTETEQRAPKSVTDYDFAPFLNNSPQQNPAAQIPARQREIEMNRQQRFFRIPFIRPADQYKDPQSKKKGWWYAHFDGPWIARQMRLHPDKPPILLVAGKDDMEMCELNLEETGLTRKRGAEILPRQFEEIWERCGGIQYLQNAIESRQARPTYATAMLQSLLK
Myosin VI globular cargo-binding domain (residues 1032–1285) (Q9UM54-1, form named): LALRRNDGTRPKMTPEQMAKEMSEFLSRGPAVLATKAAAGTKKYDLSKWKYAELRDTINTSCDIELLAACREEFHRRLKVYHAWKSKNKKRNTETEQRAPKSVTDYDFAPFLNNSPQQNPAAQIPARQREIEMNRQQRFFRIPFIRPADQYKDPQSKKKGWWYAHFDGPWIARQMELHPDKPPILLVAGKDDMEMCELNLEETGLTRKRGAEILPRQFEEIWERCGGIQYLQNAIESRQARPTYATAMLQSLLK
C-terminal CBD of Myosin VI 1157–1285(W1193A) (Q9UM54-1, form named): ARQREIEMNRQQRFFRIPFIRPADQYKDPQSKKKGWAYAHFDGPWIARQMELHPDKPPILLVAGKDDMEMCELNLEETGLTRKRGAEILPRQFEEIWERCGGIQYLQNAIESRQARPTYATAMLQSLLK
C-terminal CBD of Myosin VI 1157–1285(E1207R) (Q9UM54-1, form named): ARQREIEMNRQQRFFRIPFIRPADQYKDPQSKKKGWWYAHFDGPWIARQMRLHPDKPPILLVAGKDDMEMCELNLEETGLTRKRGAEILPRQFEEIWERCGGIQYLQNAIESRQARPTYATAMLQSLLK
UniProt Q96CV9: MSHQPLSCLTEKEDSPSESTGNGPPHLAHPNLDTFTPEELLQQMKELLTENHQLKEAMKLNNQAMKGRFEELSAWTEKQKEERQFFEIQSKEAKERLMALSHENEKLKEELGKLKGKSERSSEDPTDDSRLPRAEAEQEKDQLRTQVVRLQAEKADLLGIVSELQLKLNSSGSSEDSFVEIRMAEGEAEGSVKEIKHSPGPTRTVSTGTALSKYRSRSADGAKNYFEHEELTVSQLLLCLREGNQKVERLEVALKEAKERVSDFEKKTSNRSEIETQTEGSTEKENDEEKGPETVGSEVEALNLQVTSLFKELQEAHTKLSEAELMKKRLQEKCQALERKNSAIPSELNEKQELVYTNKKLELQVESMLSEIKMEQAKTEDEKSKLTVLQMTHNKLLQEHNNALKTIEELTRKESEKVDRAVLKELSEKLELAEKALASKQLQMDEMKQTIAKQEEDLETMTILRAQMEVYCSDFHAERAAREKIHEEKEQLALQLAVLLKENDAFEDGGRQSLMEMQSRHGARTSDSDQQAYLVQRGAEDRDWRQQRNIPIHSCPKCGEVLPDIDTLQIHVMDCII
UniProt Q86VP1, residues 725-789: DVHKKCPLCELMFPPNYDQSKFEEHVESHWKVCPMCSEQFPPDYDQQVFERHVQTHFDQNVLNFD
UniProt Q8K3K8, residues 417-512: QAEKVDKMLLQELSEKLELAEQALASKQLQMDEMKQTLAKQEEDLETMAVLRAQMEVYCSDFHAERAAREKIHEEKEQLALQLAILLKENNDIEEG

Legend:
[1] = biological target: GFP-tagged Myosin VI(1060–1285) (human) (UniProt Q9UM54); test: co-IP; HEK293T co-transfected with GFP-tagged Myosin VI(1060–1285) and a Cherry-tagged partner; anti-GFP agarose beads, western blot
[2] = biological target: endogenous Myosin VI (human (endogenous in HEK293T)) (UniProt Q9UM54); test: co-IP; endogenous proteins of HEK293T lysate; antibody to the tail region of Myosin VI, Protein G agarose; blots for Tom1, TAX1BP1, NDP52, Optineurin
[3] = biological target: GFP-tagged Myosin VI(1060–1285) W1193A (human) (UniProt Q9UM54); test: co-IP; HEK293T co-transfected with GFP-tagged Myosin VI(1060–1285) and a Cherry-tagged partner; anti-GFP agarose beads, western blot
[4] = biological target: GFP-tagged Myosin VI(1060–1285) E1207R (human) (UniProt Q9UM54); test: as above
[5] = biological target: C-terminal cargo-binding domain (CBD) of Myosin VI (residues 1157–1285) (human) (UniProt Q9UM54); test: ITC; 25 °C, 20 mM Tris pH 7.9, 100 mM NaCl, 1 mM DTT; 50 µM protein in the cell, 500 µM in the syringe; one-site binding model; both purified
[6] = biological target: Tom1 L448E mutant of the ternary-complex co-immunoprecipitation (Fig. 5c) (human) (UniProt O60784); test: co-IP; HEK293T co-transfected with Tom1, Myosin VI(1060–1285) and an autophagy receptor (Fig. 5b, c); anti-GFP or anti-Flag agarose beads, western blot
[7] = biological target: Tom1 wild type of the ternary-complex co-immunoprecipitations (Flag vector) (human) (UniProt O60784); test: as above
[8] = biological target: Tom1 truncation mutant (residues 1–437) (human) (UniProt O60784); test: as above
[9] = biological target: Tom1 R451E mutant of the ternary-complex co-immunoprecipitation (Fig. 5c) (human) (UniProt O60784); test: as above
[10] = biological target: Myosin VI(1060–1285), purified recombinant (human) (UniProt Q9UM54); test: SEC; analytical gel filtration coupled with SDS-PAGE, purified proteins, in the presence of K63-linked or M1-linked di-ubiquitin; both purified
[11] = biological target: Myosin VI globular cargo-binding domain (residues 1032–1285) (human) (UniProt Q9UM54); test: SEC; analytical gel filtration of purified proteins, Superose 200 increase 10/300 GL, 20 mM Tris-HCl pH 7.9, 100 mM NaCl, 1 mM DTT; both purified
[12] = biological target: GFP-tagged Myosin VI(1060–1285) (human) (UniProt Q9UM54); test: co-IP; HEK293T co-transfected with GFP-tagged Myosin VI(1060–1285) and a Cherry-tagged partner; anti-GFP agarose beads, western blot; remark: listed apart in the source
[13] = biological target: Tom1(437–463), Myosin VI-binding motif (human) (UniProt O60784); test: SEC + SEC-MALS + AUC; analytical gel filtration, multi-angle light scattering (20 mM Tris-HCl pH 7.9, 100 mM NaCl, 1 mM DTT) and sedimentation velocity (20 °C) of each protein alone and of the complex; both purified
[14] = biological target: C-terminal CBD of Myosin VI 1157–1285(W1193A) (human) (UniProt Q9UM54); test: ITC; 25 °C, 20 mM Tris pH 7.9, 100 mM NaCl, 1 mM DTT; 50 µM protein in the cell, 500 µM in the syringe; one-site binding model; both purified
[15] = biological target: C-terminal CBD of Myosin VI 1157–1285(E1207R) (human) (UniProt Q9UM54); test: as above

## Cherry-tagged Tom1 R451E mutant (from UniProt O60784-2 1-493)
[1]
  binding: no binding

## endogenous Optineurin (from UniProt Q96CV9 1-577)
[2]
  binding: binds

## Cherry-tagged Tom1 full length (from UniProt O60784-2 1-493)
[3]
  binding: no binding
[4]
  binding: no binding
[1]
  binding: binds

## endogenous Tom1 (from UniProt O60784 1-492)
[2]
  binding: binds

## Tom1(464–493) (from UniProt O60784-2 464-493) (domain or fragment)
[5]
  binding: no binding (tested: 50 µM in the cell, 500 µM in the syringe)

## Cherry-tagged Tom1 L448E mutant (from UniProt O60784-2 1-493)
[1]
  binding: no binding

## Tom1(392–437) (from UniProt O60784-2 392-437) (domain or fragment)
[5]
  binding: no binding (tested: 50 µM in the cell, 500 µM in the syringe)

## GFP-tagged Myosin VI(1060–1285) (from UniProt Q9UM54-1 1060-1285) (domain or fragment)
[6]
  binding: no binding
[7]
  binding: binds
[8]
  binding: no binding
[9]
  binding: no binding

## TAX1BP1(725–789) (from UniProt Q86VP1 725-789) (domain or fragment)
[10]
  binding: binds

## Tom1(215–392) (from UniProt O60784-2 215-392) (domain or fragment)
[11]
  binding: no binding
[5]
  binding: no binding (tested: 50 µM in the cell, 500 µM in the syringe)

## Optineurin expressed in transfected cells (pmCherry-C1) (from UniProt Q96CV9 1-577)
[6]
  binding: no binding
[8]
  binding: no binding
[9]
  binding: no binding
[1]
  binding: binds

## Optineurin(417–512) (from UniProt Q8K3K8 417-512) (domain or fragment)
[10]
  binding: binds weakly

B1: Tom1(215–493) (domain or fragment, human, UniProt O60784-2 215-493, looked up)
chain: EQIGKLRSELEMVSGNVRVMSEMLTELVPTQAEPADLELLQELNRTCRAMQQRVLELIPQIANEQLTEELLIVNDNLNNVFLRHERFERFRTGQTTKAPSEAEPAADLIDMGPDPAATGNLSSQLAGMNLGSSSVRAGLQSLEASGRLEDEFDMFALTRGSSLADQRKEVKYEAPQATDGLAGALDARQQSTGAIPVTQACLMEDIEQWLSTDVGNDAEEPKGVTSEGKFDKFLEERAKAADRLPNLSSPSAEGPPGPPSGPAPRKKTQEKDDDMLFAL
notes: source: E. coli BL21 (DE3), purified (Ni-NTA, SEC); not shown: thioredoxin, N-terminal, cleaved; His6, N-terminal, cleaved
[11]
  binding: binds

B2: Tom1(392–493) (domain or fragment, human, UniProt O60784-2 392-493, looked up)
chain: TDGLAGALDARQQSTGAIPVTQACLMEDIEQWLSTDVGNDAEEPKGVTSEGKFDKFLEERAKAADRLPNLSSPSAEGPPGPPSGPAPRKKTQEKDDDMLFAL
notes: 15N-labelled in one NMR titration; source: E. coli BL21 (DE3), purified (Ni-NTA, SEC); not shown: thioredoxin, N-terminal, cleaved; His6, N-terminal, cleaved
[11]
  binding: binds

B3: NDP52 expressed in transfected cells (pmCherry-C1) (protein, UniProt Q13137 1-446)
chain: MEETIKDPPTSAVLLDHCHFSQVIFNSVEKFYIPGGDVTCHYTFTQHFIPRRKDWIGIFRVGWKTTREYYTFMWVTLPIDLNNKSAKQQEVQFKAYYLPKDDEYYQFCYVDEDGVVRGASIPFQFRPENEEDILVVTTQGEVEEIEQHNKELCKENQELKDSCISLQKQNSDMQAELQKKQEELETLQSINKKLELKVKEQKDYWETELLQLKEQNQKMSSENEKMGIRVDQLQAQLSTQEKEMEKLVQGDQDKTEQLEQLKKENDHLFLSLTEQRKDQKKLEQTVEQMKQNETTAMKKQQELMDENFDLSKRLSENEIICNALQRQKERLEGENDLLKRENSRLLSYMGLDFNSLPYQVPTSDEGGARQNPGLAYGNPYSGIQESSSPSPLSIKKCPICKADDICDHTLEQQQMQPLCFNCPICDKIFPATEKQIFEDHVFCHSL
[6]
  binding: no binding
[8]
  binding: no binding
[9]
  binding: no binding
[12]
  binding: binds

B4: Tom1(392–463) (domain or fragment, human, UniProt O60784-2 392-463, looked up)
chain: TDGLAGALDARQQSTGAIPVTQACLMEDIEQWLSTDVGNDAEEPKGVTSEGKFDKFLEERAKAADRLPNLSS
notes: as for B2
[11]
  binding: binds

B5: endogenous NDP52 (protein, UniProt Q13137 1-446)
chain: B3 chain
[2]
  binding: binds

B6: NDP52(365–446) (domain or fragment, UniProt Q13137 365-446)
chain: EGGARQNPGLAYGNPYSGIQESSSPSPLSIKKCPICKADDICDHTLEQQQMQPLCFNCPICDKIFPATEKQIFEDHVFCHSL
[10]
  binding: binds

B7: Tom1(437–463), Myosin VI-binding motif (domain or fragment, human, UniProt O60784-2 437-463, looked up)
chain: GVTSEGKFDKFLEERAKAADRLPNLSS
notes: monomer by light scattering and ultracentrifugation; also called Tom1 MBM; source: E. coli BL21 (DE3), purified (Ni-NTA, SEC); not shown: thioredoxin, N-terminal, cleaved; His6, N-terminal, cleaved
[13]
  binding: no binding
[10]
  binding: binds
[14]
  binding: no binding (tested: 50 µM in the cell, 500 µM in the syringe)
[15]
  binding: no binding (tested: 50 µM in the cell, 500 µM in the syringe)

## GVTSEGKFDKFEEERAKAADRLPNLSS (domain or fragment, UniProt O60784-2 437-463) [Tom1 437–463(L448E)]
[5]
  binding: no binding (tested: 50 µM in the cell, 500 µM in the syringe)

## GVTSEGKFDKFLEEEAKAADRLPNLSS (domain or fragment, UniProt O60784-2 437-463) [Tom1 437–463(R451E)]
[5]
  binding: no binding (tested: 50 µM in the cell, 500 µM in the syringe)
